# Assay results: the supplement of paper PMC8728848
# This is one part of the list.
# B1: Banana lectin (Musa acuminata) (protein)
# chain: MNGAIKVGAWGGNGGSAFDMGPAYRIISVKIFSGDVVDGVDVTFTYYGKTETRHYGGSGGTPHEIVLQEGEYLVGMAGEVANYTGAVVLGKLGFSTNKKAYGPFGNTGGTPFSLPIAAGKISGFFGRGGKFLDAIGVYLEPLEHHHHHH
# Columns and labels:
# Experiment in all cases: glycan array binding signal (z-score within array); higher = stronger binding
# Conditions in all cases: glycan notation: IUPAC condensed, linker removed; mutation: H84T
# [1] = target: Neu5Ac(a2-6)GlcNAc(b1-4)GlcNAc
# Outline: (§1)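 From the Consortium for Functional Glycomics database, 3228 arrays were curated, keeping only those whose protein sequence was available. Binding is given as a within-array Z-score averaged across arrays sharing a protein sequence and across linkers. Negative Z-scores can be read as non-binding.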
# [2] = target: Neu5Ac(a2-6)GlcNAc(b1-4)GlcNAc(b1-4)GlcNAc
# Outline: as §1
# Neu5Ac(a2-8)Neu5Ac = target: Neu5Ac(a2-8)Neu5Ac
# Outline: as §1
# [3] = target: Neu5Ac(a2-8)Neu5Ac(a2-3)Gal(b1-3)GalNAc(b1-4)[Neu5Ac(a2-3)]Gal(b1-4)Glc
# Outline: as §1
# [4] = target: Neu5Ac(a2-8)Neu5Ac(a2-3)Gal(b1-3)GalNAc(b1-4)[Neu5Ac(a2-8)Neu5Ac(a2-3)]Gal(b1-4)Glc
# Outline: as §1
# [5] = target: Neu5Ac(a2-8)Neu5Ac(a2-3)Gal(b1-4)Glc
# Outline: as §1
# [6] = target: Neu5Ac(a2-8)Neu5Ac(a2-3)Gal(b1-4)GlcNAc
# Outline: as §1
# [7] = target: Neu5Ac(a2-8)Neu5Ac(a2-3)[Gal(b1-3)GalNAc(b1-4)]Gal(b1-4)Glc
# Outline: as §1
# [8] = target: Neu5Ac(a2-8)Neu5Ac(a2-3)[GalNAc(b1-4)]Gal(b1-4)Glc
# Outline: as §1
# [9] = target: Neu5Ac(a2-8)Neu5Ac(a2-8)Neu5Ac
# Outline: as §1
# [10] = target: Neu5Ac(a2-8)Neu5Ac(a2-8)Neu5Ac(a2-3)Gal(b1-4)Glc
# Outline: as §1
# [11] = target: Neu5Ac(a2-8)Neu5Ac(a2-8)Neu5Ac(a2-3)[Gal(b1-3)GalNAc(b1-4)]Gal(b1-4)Glc
# Outline: as §1
# [12] = target: Neu5Ac(a2-8)Neu5Ac(a2-8)Neu5Ac(a2-3)[GalNAc(b1-4)]Gal(b1-4)Glc
# Outline: as §1
# [13] = target: Neu5Ac(a2-8)Neu5Ac(a2-8)Neu5Ac(a2-8)Neu5Ac(a2-3)[GalNAc(b1-4)]Gal(b1-4)Glc
# Outline: as §1
# [14] = target: Neu5Ac(a2-8)Neu5Gc(a2-3)Gal(b1-4)GlcNAc
# Outline: as §1
# [15] = target: Neu5Ac(b2-6)Gal(b1-4)GlcNAc
# Outline: as §1
# Neu5Ac(b2-6)GalNAc = target: Neu5Ac(b2-6)GalNAc
# Outline: as §1
# [16] = target: Neu5Ac9Ac(a2-3)Gal(b1-3)GlcNAc
# Outline: as §1
# [17] = target: Neu5Ac9Ac(a2-3)Gal(b1-4)GlcNAc
# Outline: as §1
# [18] = target: Neu5Ac9Ac(a2-6)Gal(b1-4)GlcNAc
# Outline: as §1
# [19] = target: Neu5Gc(a2-3)Gal(b1-3)GlcNAc
# Outline: as §1
# [20] = target: Neu5Gc(a2-3)Gal(b1-3)[Fuc(a1-4)]GlcNAc
# Outline: as §1
# Neu5Gc(a2-3)Gal(b1-4)Glc = target: Neu5Gc(a2-3)Gal(b1-4)Glc
# Outline: as §1
# [21] = target: Neu5Gc(a2-3)Gal(b1-4)GlcNAc
# Outline: as §1
# [22] = target: Neu5Gc(a2-3)Gal(b1-4)GlcNAc(b1-3)Gal(b1-4)GlcNAc(b1-2)Man(a1-3)[Neu5Gc(a2-3)Gal(b1-4)GlcNAc(b1-3)Gal(b1-4)GlcNAc(b1-2)Man(a1-6)]Man(b1-4)GlcNAc(b1-4)GlcNAc
# Outline: as §1
# [23] = target: Neu5Gc(a2-3)Gal(b1-4)[Fuc(a1-3)]GlcNAc
# Outline: as §1
# [24] = target: Neu5Gc(a2-6)Gal(b1-4)GlcNAc
# Outline: as §1
# Neu5Gc(a2-6)GalNAc = target: Neu5Gc(a2-6)GalNAc
# Outline: as §1
# [25] = target: Neu5Gc(a2-8)Neu5Ac(a2-3)Gal(b1-4)GlcNAc
# Outline: as §1
# [26] = target: Neu5Gc(a2-8)Neu5Gc(a2-3)Gal(b1-4)GlcNAc
# Outline: as §1
# [27] = target: Neu5Gc(a2-8)Neu5Gc(a2-3)Gal(b1-4)GlcNAc(b1-3)Gal(b1-4)GlcNAc
# Outline: as §1
# [28] = target: Neu5Gc(a2-8)Neu5Gc(a2-6)Gal(b1-4)GlcNAc
# Outline: as §1
# [29] = target: Neu5Gc(b2-6)Gal(b1-4)GlcNAc
# Outline: as §1
binder,measurement,setting,value
B1,glycan array binding signal (z-score),[1],-0.155
same,glycan array binding signal (z-score),[2],-0.201
same,glycan array binding signal (z-score),Neu5Ac(a2-8)Neu5Ac,-0.177
same,glycan array binding signal (z-score),[3],-0.187
same,glycan array binding signal (z-score),[4],-0.177
same,glycan array binding signal (z-score),[5],-0.177
same,glycan array binding signal (z-score),[6],-0.182
same,glycan array binding signal (z-score),[7],-0.178
same,glycan array binding signal (z-score),[8],-0.134
same,glycan array binding signal (z-score),[9],-0.158
same,glycan array binding signal (z-score),[10],-0.179
same,glycan array binding signal (z-score),[11],-0.159
same,glycan array binding signal (z-score),[12],-0.157
same,glycan array binding signal (z-score),[13],-0.195
same,glycan array binding signal (z-score),[14],-0.222
same,glycan array binding signal (z-score),[15],-0.184
same,glycan array binding signal (z-score),Neu5Ac(b2-6)GalNAc,-0.154
same,glycan array binding signal (z-score),[16],-0.175
same,glycan array binding signal (z-score),[17],-0.181
same,glycan array binding signal (z-score),[18],-0.176
same,glycan array binding signal (z-score),[19],-0.118
same,glycan array binding signal (z-score),[20],-0.194
same,glycan array binding signal (z-score),Neu5Gc(a2-3)Gal(b1-4)Glc,-0.209
same,glycan array binding signal (z-score),[21],-0.189
same,glycan array binding signal (z-score),[22],-0.186
same,glycan array binding signal (z-score),[23],-0.18
same,glycan array binding signal (z-score),[24],-0.167
same,glycan array binding signal (z-score),Neu5Gc(a2-6)GalNAc,-0.157
same,glycan array binding signal (z-score),[25],-0.19
same,glycan array binding signal (z-score),[26],-0.162
same,glycan array binding signal (z-score),[27],-0.195
same,glycan array binding signal (z-score),[28],-0.137
same,glycan array binding signal (z-score),[29],-0.168
